# The list shows a part of the results.
# B1: Dectin2 (Homo sapiens), Q6EIG7 (protein)
# chain: MMQEQQPQSTEKRGWLSLRLWSVAGISIALLSACFIVSCVVTYHFTYGETGKRLSELHSYHSSLTCFSEGTKVPAWGCCPASWKSFGSSCYFISSEEKVWSKSEQNCVEMGAHLVVFNTEAEQNFIVQQLNESFSYFLGLSDPQGNNNWQWIDKTPYEKNVRFWHLGEPNHSAEQCASIVFWKPTGWGWNDVICETRRNSICEMNKIYL
# Assays:
# Assay in all cases: glycan array binding signal (z-score within array); higher = stronger binding
# Settings in all cases: glycan notation: IUPAC condensed, linker removed
# [1] = target: Fuc(a1-2)Gal(b1-4)[Fuc(a1-3)]GlcNAc
# Summary of the method: (§1)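 Negative Z-scores can be read as non-binding. The Z-score is calculated within each array and then averaged across arrays of one protein sequence at different concentrations or buffers and across linkers. Arrays, 3228 in all, were curated from the Consortium for Functional Glycomics database and kept only where the protein sequence was available.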
# [2] = target: Fuc(a1-2)Gal(b1-4)[Fuc(a1-3)]GlcNAc(b1-2)Man(a1-3)[Fuc(a1-2)Gal(b1-4)[Fuc(a1-3)]GlcNAc(b1-2)Man(a1-6)]Man(b1-4)GlcNAc(b1-4)[Fuc(a1-6)]GlcNAc
# Summary of the method: as §1
# [3] = target: Fuc(a1-2)Gal(b1-4)[Fuc(a1-3)]GlcNAc(b1-2)[Fuc(a1-2)Gal(b1-4)[Fuc(a1-3)]GlcNAc(b1-4)]Man(a1-3)[Fuc(a1-2)Gal(b1-4)[Fuc(a1-3)]GlcNAc(b1-2)Man(a1-6)]Man(b1-4)GlcNAc(b1-4)GlcNAc
# Summary of the method: as §1
# [4] = target: Fuc(a1-2)Gal(b1-4)[Fuc(a1-3)]GlcNAc(b1-3)Gal(b1-4)[Fuc(a1-3)]GlcNAc
# Summary of the method: as §1
# [5] = target: Fuc(a1-2)Gal(b1-4)[Fuc(a1-3)]GlcNAc(b1-3)Gal(b1-4)[Fuc(a1-3)]GlcNAc(b1-3)Gal(b1-4)[Fuc(a1-3)]GlcNAc
# Summary of the method: as §1
# [6] = target: Fuc(a1-2)Gal(b1-4)[Fuc(a1-3)]GlcNAc(b1-3)GalNAc
# Summary of the method: as §1
# [7] = target: Fuc(a1-2)Gal(b1-4)[Fuc(a1-3)]GlcNAc(b1-3)[Neu5Ac(a2-6)Gal(b1-4)GlcNAc(b1-6)]Gal(b1-4)Glc
# Summary of the method: as §1
# [8] = target: Fuc(a1-2)Gal3S(b1-4)GlcNAc
# Summary of the method: as §1
# [9] = target: Fuc(a1-2)Gal6S(b1-3)GlcNAc
# Summary of the method: as §1
# [10] = target: Fuc(a1-2)Gal6S(b1-3)GlcNAc6S
# Summary of the method: as §1
# Fuc(a1-2)Gal6S(b1-4)Glc = target: Fuc(a1-2)Gal6S(b1-4)Glc
# Summary of the method: as §1
# [11] = target: Fuc(a1-2)Gal6S(b1-4)Glc6S
# Summary of the method: as §1
# Fuc(a1-2)[Gal(a1-3)]Gal = target: Fuc(a1-2)[Gal(a1-3)]Gal
# Summary of the method: as §1
# [12] = target: Fuc(a1-2)[Gal(a1-3)]Gal(b1-3)GalNAc
# Summary of the method: as §1
# [13] = target: Fuc(a1-2)[Gal(a1-3)]Gal(b1-3)GalNAc(b1-3)Gal(a1-4)Gal(b1-4)Glc
# Summary of the method: as §1
# [14] = target: Fuc(a1-2)[Gal(a1-3)]Gal(b1-3)GlcNAc
# Summary of the method: as §1
# [15] = target: Fuc(a1-2)[Gal(a1-3)]Gal(b1-3)GlcNAc(b1-2)Man(a1-3)[Fuc(a1-2)[Gal(a1-3)]Gal(b1-3)GlcNAc(b1-2)Man(a1-6)]Man(b1-4)GlcNAc(b1-4)GlcNAc
# Summary of the method: as §1
# [16] = target: Fuc(a1-2)[Gal(a1-3)]Gal(b1-3)GlcNAc(b1-2)Man(a1-3)[Fuc(a1-2)[Gal(a1-3)]Gal(b1-3)GlcNAc(b1-2)Man(a1-6)]Man(b1-4)GlcNAc(b1-4)[Fuc(a1-6)]GlcNAc
# Summary of the method: as §1
# [17] = target: Fuc(a1-2)[Gal(a1-3)]Gal(b1-3)GlcNAc(b1-3)GalNAc
# Summary of the method: as §1
# [18] = target: Fuc(a1-2)[Gal(a1-3)]Gal(b1-3)GlcNAc(b1-6)GalNAc
# Summary of the method: as §1
# [19] = target: Fuc(a1-2)[Gal(a1-3)]Gal(b1-4)Glc
# Summary of the method: as §1
# [20] = target: Fuc(a1-2)[Gal(a1-3)]Gal(b1-4)GlcNAc
# Summary of the method: as §1
# [21] = target: Fuc(a1-2)[Gal(a1-3)]Gal(b1-4)GlcNAc(b1-2)Man
# Summary of the method: as §1
# [22] = target: Fuc(a1-2)[Gal(a1-3)]Gal(b1-4)GlcNAc(b1-2)Man(a1-3)[Fuc(a1-2)[Gal(a1-3)]Gal(b1-4)GlcNAc(b1-2)Man(a1-6)]Man(b1-4)GlcNAc(b1-4)GlcNAc
# Summary of the method: as §1
# [23] = target: Fuc(a1-2)[Gal(a1-3)]Gal(b1-4)GlcNAc(b1-2)Man(a1-3)[Fuc(a1-2)[Gal(a1-3)]Gal(b1-4)GlcNAc(b1-2)Man(a1-6)]Man(b1-4)GlcNAc(b1-4)[Fuc(a1-6)]GlcNAc
# Summary of the method: as §1
# [24] = target: Fuc(a1-2)[Gal(a1-3)]Gal(b1-4)GlcNAc(b1-3)GalNAc
# Summary of the method: as §1
# [25] = target: Fuc(a1-2)[Gal(a1-3)]Gal(b1-4)GlcNAc(b1-3)[Fuc(a1-2)[Gal(a1-3)]Gal(b1-4)GlcNAc(b1-6)]GalNAc
# Summary of the method: as §1
# [26] = target: Fuc(a1-2)[Gal(a1-3)]Gal(b1-4)GlcNAc(b1-6)GalNAc
# Summary of the method: as §1
# [27] = target: Fuc(a1-2)[Gal(a1-3)]Gal(b1-4)[Fuc(a1-3)]Glc
# Summary of the method: as §1
# [28] = target: Fuc(a1-2)[Gal(a1-3)]Gal(b1-4)[Fuc(a1-3)]GlcNAc
# Summary of the method: as §1
# [29] = target: Fuc(a1-2)[Gal(a1-3)]Gal(b1-4)[Fuc(a1-3)]GlcNAc(b1-3)GalNAc
# Summary of the method: as §1
# [30] = target: Fuc(a1-2)[Gal(a1-4)]Gal(b1-4)GlcNAc
# Summary of the method: as §1
# [31] = target: Fuc(a1-2)[GalNAc(a1-3)]Gal
# Summary of the method: as §1
# [32] = target: Fuc(a1-2)[GalNAc(a1-3)]Gal(b1-3)GalNAc(a1-3)[Fuc(a1-2)]Gal(b1-4)GlcNAc
# Summary of the method: as §1
# [33] = target: Fuc(a1-2)[GalNAc(a1-3)]Gal(b1-3)GalNAc(b1-3)Gal(a1-4)Gal(b1-4)Glc
# Summary of the method: as §1
# [34] = target: Fuc(a1-2)[GalNAc(a1-3)]Gal(b1-3)GlcNAc
# Summary of the method: as §1
# [35] = target: Fuc(a1-2)[GalNAc(a1-3)]Gal(b1-3)GlcNAc(b1-2)Man(a1-3)[Fuc(a1-2)[GalNAc(a1-3)]Gal(b1-3)GlcNAc(b1-2)Man(a1-6)]Man(b1-4)GlcNAc(b1-4)GlcNAc
# Summary of the method: as §1
# [36] = target: Fuc(a1-2)[GalNAc(a1-3)]Gal(b1-3)GlcNAc(b1-2)Man(a1-3)[Fuc(a1-2)[GalNAc(a1-3)]Gal(b1-3)GlcNAc(b1-2)Man(a1-6)]Man(b1-4)GlcNAc(b1-4)[Fuc(a1-6)]GlcNAc
# Summary of the method: as §1
binder,measurement,setting,value
B1,glycan array binding signal (z-score),[1],-0.151
same,glycan array binding signal (z-score),[2],-0.008
same,glycan array binding signal (z-score),[3],0.049
same,glycan array binding signal (z-score),[4],-0.126
same,glycan array binding signal (z-score),[5],-0.114
same,glycan array binding signal (z-score),[6],-0.082
same,glycan array binding signal (z-score),[7],-0.174
same,glycan array binding signal (z-score),[8],-0.162
same,glycan array binding signal (z-score),[9],-0.162
same,glycan array binding signal (z-score),[10],-0.054
same,glycan array binding signal (z-score),Fuc(a1-2)Gal6S(b1-4)Glc,-0.138
same,glycan array binding signal (z-score),[11],0.371
same,glycan array binding signal (z-score),Fuc(a1-2)[Gal(a1-3)]Gal,-0.164
same,glycan array binding signal (z-score),[12],-0.172
same,glycan array binding signal (z-score),[13],-0.16
same,glycan array binding signal (z-score),[14],-0.104
same,glycan array binding signal (z-score),[15],-0.132
same,glycan array binding signal (z-score),[16],0.132
same,glycan array binding signal (z-score),[17],-0.171
same,glycan array binding signal (z-score),[18],-0.137
same,glycan array binding signal (z-score),[19],-0.145
same,glycan array binding signal (z-score),[20],-0.16
same,glycan array binding signal (z-score),[21],-0.149
same,glycan array binding signal (z-score),[22],-0.099
same,glycan array binding signal (z-score),[23],0.036
same,glycan array binding signal (z-score),[24],-0.204
same,glycan array binding signal (z-score),[25],-0.136
same,glycan array binding signal (z-score),[26],-0.164
same,glycan array binding signal (z-score),[27],-0.152
same,glycan array binding signal (z-score),[28],-0.1
same,glycan array binding signal (z-score),[29],-0.151
same,glycan array binding signal (z-score),[30],-0.154
same,glycan array binding signal (z-score),[31],-0.156
same,glycan array binding signal (z-score),[32],-0.206
same,glycan array binding signal (z-score),[33],-0.173
same,glycan array binding signal (z-score),[34],-0.126
same,glycan array binding signal (z-score),[35],-0.135
same,glycan array binding signal (z-score),[36],0.029

# Source: the supplement of paper PMC8728848
